# Assay results: PubChem BioAssay AID2147 (National Center for Advancing Translational Sciences (NCATS), 2009)
# Screen size: about 230,000 compounds; about 3,600 (1.6%) were called active. Inconclusive means that the source gave no clear call. Such entries were picked first, then a sample of the others. The call rests on the fitted dose curve; in most records, active means well fitted inhibition curve with a large enough effect (not every such curve was filed as active); inconclusive means small, poorly fitted or top-dose-only effect, or another doubt; inactive means no such curve, though single readings can be large or run the other way. Potencies of inconclusive entries are doubtful fits and often do not repeat.
# Target: Lysine-specific demethylase 4E (Homo sapiens) (UniProt B2RXH2)
# Assay: qHTS Assay for Inhibitors of Human Jumonji Domain Containing 2E (JMJD2E)
# Details: JMJD2E catalytic domain, FDH-coupled NADH fluorescence (FDH is formaldehyde dehydrogenase); series mostly up to 57.1 µM
# Further: nearly all actives have a fitted effect of over 50% in size.
# Potency means the concentration at half of the fitted maximal effect; tags describe the fitted curve by direction and shape.
# Sequence of UniProt B2RXH2 (B2RXH2 whole entry, looked up, the tested form may be a part): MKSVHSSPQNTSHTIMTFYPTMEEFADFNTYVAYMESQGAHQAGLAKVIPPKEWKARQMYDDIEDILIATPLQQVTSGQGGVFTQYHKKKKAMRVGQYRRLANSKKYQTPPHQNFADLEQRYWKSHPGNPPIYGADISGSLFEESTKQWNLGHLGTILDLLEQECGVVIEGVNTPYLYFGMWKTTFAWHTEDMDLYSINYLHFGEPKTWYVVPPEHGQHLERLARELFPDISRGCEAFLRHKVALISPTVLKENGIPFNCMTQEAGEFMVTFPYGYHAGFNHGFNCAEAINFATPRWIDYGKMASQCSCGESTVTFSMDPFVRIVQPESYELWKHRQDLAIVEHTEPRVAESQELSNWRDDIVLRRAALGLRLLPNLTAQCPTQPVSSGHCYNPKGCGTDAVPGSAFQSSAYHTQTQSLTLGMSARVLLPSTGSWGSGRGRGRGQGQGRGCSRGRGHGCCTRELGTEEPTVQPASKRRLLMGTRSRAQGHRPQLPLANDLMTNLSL
row,SMILES,Potency
1,Cc1nc2c(C#N)c[nH]n2c(=O)c1CCO,"inconclusive: 35.5 µM [inhibitor, single point]"
2,Oc1ccc(/C=N/N2CCOCC2)c(O)c1O,active: 25.1 µM
3,COc1ccc(C(=O)N(Cc2ccco2)Cc2cccs2)c(O)c1,inactive
4,Cc1cccc(C)c1OCC(=O)Nc1cccc(NC(=O)c2ccco2)c1,inactive
5,Cc1cc(N2CC(C)OC(C)C2)n2cc(-c3ccccc3)nc2n1 (stereo not drawn),"inconclusive: 31.6 µM [inhibitor, partial curve]"
6,Oc1c(Br)cc(Br)cc1/C=N/NC(=S)N[C@H]1CC2C=CC1C2 (stereo partly drawn),active: 8.91 µM
7,CCOC(=O)C1=C(C)NC(=O)CC1c1cc(OC)c(OC)cc1Br (stereo not drawn),inactive
8,CC(=O)N1CCN(c2nc3cc4c(cc3nc2NS(=O)(=O)c2ccccc2)OCCO4)CC1,"inconclusive: 28.2 µM [inhibitor, partial curve]"
9,Cn1c(=S)[nH]c2[nH]c(=O)cnc2c1=O,"inconclusive: 39.8 µM [inhibitor, single point]"
10,Cc1ccc(CN(C)C(=O)c2cc(COc3ccc(F)cc3Cl)on2)o1,inactive
11,O=C(O)c1ccc2c(=O)n(-c3ccc(F)cc3)c(=S)[nH]c2c1,inactive
12,Nc1nc(-c2cccs2)c(NC(=O)c2ccccc2)s1,inactive
13,COc1ccc(NCc2nnc(SCC(=O)Nc3ccc(OC)cc3)n2C)cc1,inactive
14,CCOC(=O)c1c(C)cc(O)cc1O,inactive
15,O=C(CN1CCN(S(=O)(=O)c2ccc3ccccc3c2)CC1)Nc1ccc(N2CCOCC2)cc1,inactive
16,CN1C2=C(C#N)C(c3ccccc3)(C(F)(F)F)NC(=O)N2c2ccccc21 (stereo not drawn),"inconclusive: 39.8 µM [inhibitor, single point]"
17,Cc1ccc2nc(-c3ccccc3O)c(Nc3ccc4c(c3)OCCO4)n2c1,"inconclusive: 35.5 µM [inhibitor, partial curve]"
18,C=C(Cl)COc1ccc2c(CC)cc(=O)oc2c1,"inconclusive: 25.1 µM [inhibitor, partial curve]"
19,CC(=O)CSc1nnc2cc(C)c3ccccc3n12,"inconclusive: 25.1 µM [inhibitor, single point]"
20,Oc1ccc2cc(Br)ccc2c1CN1CCCC1,inactive
21,CCOC(=O)C1(CC2CC2)CCN(S(=O)(=O)/C=C/c2ccccc2)CC1,inactive
22,O=C1c2ccccc2C(=O)N1Cc1ccccn1,inactive
23,CC1(C)CC(=O)C(C(C2=C(O)CC(C)(C)CC2=O)c2cccc(O)c2)C(=O)C1 (stereo not drawn),"inconclusive: 31.6 µM [inhibitor, single point]"
24,O=C1NC(=S)SC1=C1CCCCCC1,inactive

row,SMILES,Potency
1,O=c1[nH]c2cc3c(cc2cc1CN(CCO)S(=O)(=O)c1ccccc1Cl)OCCO3,"inconclusive: 31.6 µM [inhibitor, partial curve]"
2,CN1/C(=C\C(=O)COC(=O)C2COc3ccccc3O2)C(C)(C)c2ccccc21 (stereo not drawn),"inconclusive: 35.5 µM [inhibitor, single point]"
3,O=C(NCc1cccnc1)c1sc2cc(Cl)ccc2c1Cl,inactive
4,CCc1nc2ccccc2c(=O)n1NC(=O)c1c(O)c2cccc3c2n(c1=O)CCC3,inactive
5,CSc1ccccc1NC(=O)CN(C)CC(=O)Nc1ccccc1F,"inconclusive: 31.6 µM [inhibitor, single point]"
6,N#Cc1c(N)nc2c(c1N)CC(=O)N2c1ccc(Cl)cc1,"inconclusive: 25.1 µM [inhibitor, single point]"
7,COc1ccc(-n2nc(C(=O)NCC(=O)NCC3COc4ccccc4O3)c3ccccc3c2=O)cc1 (stereo not drawn),"inconclusive: 35.5 µM [inhibitor, single point]"
8,Cc1onc(-c2ccccc2Cl)c1C(=O)Nc1cccc(-c2cn3cccnc3n2)c1,"inconclusive: 31.6 µM [inhibitor, partial curve]"
9,Cc1ccccc1Cn1nc(C)c(NC(=O)c2ccccc2)c1C,"inconclusive: 0.501 µM [inhibitor, single point]"
10,COc1ccc(Cn2nnnc2CN(CCCN2CCOCC2)Cc2cc3cc(OC)ccc3[nH]c2=O)cc1,"inconclusive: 31.6 µM [inhibitor, partial curve]"
11,O=C(NCc1nc2ccccc2[nH]1)C1=C[C@H](c2ccc(C(F)(F)F)cc2)C[C@H](OCc2ccc(CO)cc2)O1,"inconclusive: 17.8 µM [inhibitor, partial curve]"
12,CCOC(=O)C1C(C#N)=C(N)OC(C)=C1c1ccncc1 (stereo not drawn),"inconclusive: 39.8 µM [inhibitor, single point]"
13,CC(C)Cc1cc(C(=O)N2CCC(N3CCC(C(=O)N4CCOCC4)CC3)CC2)n[nH]1,inactive
14,CN(C(=O)CC1C(=O)NCCN1Cc1ccc(F)c(F)c1)C1CCOCC1 (stereo not drawn),"inconclusive: 35.5 µM [inhibitor, single point]"
15,COCC(=O)N/N=C(\C)CC(=O)Nc1ccccc1C(N)=O,"inconclusive: 35.5 µM [inhibitor, single point]"
16,CCN1C/C(=C/c2cccs2)c2nc3ccccc3c(C(=O)O)c2C1,active: 25.1 µM
17,O=C(CCN1CCC(c2ccccc2)C1)c1ccc2c(c1)OCCO2 (stereo not drawn),active: 17.8 µM
18,COc1ccc(C2C(C(=O)c3ccco3)=C(O)C(=O)N2CCc2ccccc2)cc1OC (stereo not drawn),"inconclusive: 31.6 µM [inhibitor, single point]"
19,CN(Cc1ccccc1NC(=O)c1ccc(S(=O)(=O)N(C)C)cc1)C1CCCCC1,"inconclusive: 39.8 µM [inhibitor, single point]"
20,Cc1ccc(/C=C/c2nc3ccccc3c(=O)[nH]2)cc1,"inconclusive: 31.6 µM [inhibitor, partial curve]"
21,C=CCn1c(N)c(S(=O)(=O)c2cccs2)c2nc3ccccc3nc21,"inconclusive: 28.2 µM [inhibitor, partial curve]"
22,Cc1c(C(=O)N2CCC(Cc3ccccc3)CC2)cccc1[N+](=O)[O-],inactive
23,CCC1CCc2c(sc3nc(SCC(=O)NCc4ccco4)n(-c4ccccc4)c(=O)c23)C1 (stereo not drawn),"inconclusive: 28.2 µM [inhibitor, partial curve]"
24,CCOC(=O)c1cc2c(ccn2C)n1CC(=O)N1CCN(c2ccccc2)CC1,"inconclusive: 6.31 µM [inhibitor, partial curve]"
